PubChem BioAssay AID504332 (National Center for Advancing Translational Sciences (NCATS), 2011)
Hit rate of the full screen: of about 350,000 compounds, about 31,000 (8.9%) were called active. The shares of active, inactive and inconclusive entries below differ from those in the screen. Calls come from the whole dose curve; as a rule, active = well fitted inhibition curve with a large enough effect; inconclusive = small, poorly fitted or top-dose-only effect; inactive = no such curve, though single readings can be large or run the other way. Potencies of inconclusive entries are doubtful fits and often do not repeat.

biological target: Histone-lysine N-methyltransferase EHMT2 (Homo sapiens) (UniProt Q96KQ7); test: qHTS Assay for Inhibitors of Histone Lysine Methyltransferase G9a; details: G9a H3K9 monomethylation, AlphaScreen, 2 h; activity, negative = inhibition: at 59 µM (top of the series) unless noted; note: nearly all actives have a fitted effect of over 75% in size
Sequence of UniProt Q96KQ7 (Q96KQ7 whole entry, looked up): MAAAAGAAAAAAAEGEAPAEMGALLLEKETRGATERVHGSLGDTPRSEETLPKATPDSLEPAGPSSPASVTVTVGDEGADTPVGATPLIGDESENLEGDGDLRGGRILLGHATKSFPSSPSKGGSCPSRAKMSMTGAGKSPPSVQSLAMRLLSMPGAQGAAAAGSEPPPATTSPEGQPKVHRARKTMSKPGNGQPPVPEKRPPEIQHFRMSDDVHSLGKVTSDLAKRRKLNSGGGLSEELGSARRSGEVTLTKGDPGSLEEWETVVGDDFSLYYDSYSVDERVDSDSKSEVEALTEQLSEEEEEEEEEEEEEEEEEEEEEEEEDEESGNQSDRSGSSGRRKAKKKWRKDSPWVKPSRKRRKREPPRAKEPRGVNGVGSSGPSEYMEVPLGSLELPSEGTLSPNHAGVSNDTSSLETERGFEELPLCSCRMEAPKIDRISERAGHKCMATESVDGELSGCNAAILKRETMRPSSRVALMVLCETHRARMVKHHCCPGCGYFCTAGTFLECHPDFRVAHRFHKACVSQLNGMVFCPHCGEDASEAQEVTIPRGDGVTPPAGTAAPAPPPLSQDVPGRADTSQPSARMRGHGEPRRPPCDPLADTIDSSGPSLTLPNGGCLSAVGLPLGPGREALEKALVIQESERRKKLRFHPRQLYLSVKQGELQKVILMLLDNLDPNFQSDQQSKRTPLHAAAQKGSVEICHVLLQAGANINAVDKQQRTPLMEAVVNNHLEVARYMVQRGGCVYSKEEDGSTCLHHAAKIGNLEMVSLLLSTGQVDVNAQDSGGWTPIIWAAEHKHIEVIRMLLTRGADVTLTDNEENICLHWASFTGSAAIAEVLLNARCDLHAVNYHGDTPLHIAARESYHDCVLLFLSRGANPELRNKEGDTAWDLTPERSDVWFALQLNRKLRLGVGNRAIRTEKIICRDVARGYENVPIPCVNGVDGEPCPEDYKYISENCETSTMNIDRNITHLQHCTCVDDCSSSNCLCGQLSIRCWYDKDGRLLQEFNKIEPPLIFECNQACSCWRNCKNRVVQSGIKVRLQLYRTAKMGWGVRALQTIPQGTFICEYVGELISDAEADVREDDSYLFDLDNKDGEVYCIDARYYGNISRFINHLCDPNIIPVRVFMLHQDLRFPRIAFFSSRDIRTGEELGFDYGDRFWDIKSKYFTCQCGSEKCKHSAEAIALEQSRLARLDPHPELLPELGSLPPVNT
Outline: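 Methyltransferase reactions run at room temperature for 2 h (20 nM enzyme, 500 nM biotin-H3K9 peptide, 20 uM SAM) after a 15 min compound preincubation; product detected by AlphaScreen beads and anti-H3K9me1 antibody.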
% is set by controls: 0 for no effect and ±100 for the full control effect; potency is the fitted concentration of half-maximal effect; tags give direction and shape of the fitted curve.

Row | Compound | Potency | activity, negative = inhibition
1 | C=CCNC(=O)c1sc(=S)n(-c2ccc(C(=O)OCC)cc2)c1N | active: 3.16 µM | –
2 | O=C(CCc1nc2ccccc2c(=O)[nH]1)OCc1ccccc1F | inconclusive: 89.1 µM [inhibitor, single point] | –
3 | COC(=O)c1ccc(NC(=O)c2cccc3c2C(=O)N(C2CCCCC2)C3)cc1 | inactive | –
4 | CC1C(=O)C(C)C(c2ccco2)NC1c1ccco1 (stereo not given) | inconclusive: 3.16 µM [inhibitor, partial curve, poor fit] | –
5 | Cc1ccc(Nc2nc(-c3ccccc3)c(CC(=O)O)s2)cc1 | active: 44.7 µM | –
6 | CN(C1CCCCC1)S(=O)(=O)c1ccc2c(c1)c(=O)c(C(=O)NCCN1CCCC1)cn2C | inconclusive: 39.8 µM [inhibitor, partial curve] | –
7 | CN1/C(=C\C(=S)NC(=O)c2ccccc2Cl)C(C)(C)c2ccccc21 | active: 35.5 µM | –
8 | O=C(CCC1N=C2c3ccccc3N=C(SCc3ccccc3Cl)N2C1=O)N1CCN(c2ccccc2)CC1 (stereo not given) | inconclusive: 8.91 µM [inhibitor, partial curve] | –
9 | CC(=O)Nc1ccc(NC(=O)Nc2cccc(C)c2C)cc1 | inactive | –
10 | Nc1ccc(S(=O)(=O)Nc2nccs2)cc1 | inactive | –
11 | Cc1ccc(C)c(OCC(=O)Nc2ccccc2C(=O)N2CCOCC2)c1 | active: 89.1 µM | –
12 | CCc1ccc(NC(=O)[C@H](C)NC(=O)C2CCN(C(=O)[C@@H](N)C(C)C)CC2)cc1 | active: 50.1 µM | –
13 | O=C(CC1S/C(=N/N=C2CCCCCC2)NC1=O)Nc1ccc(Br)cc1F (stereo not given) | inactive | –
14 | CSc1ncc(Cl)c(C(=O)Nc2sc3c(c2C(=O)NCc2ccco2)CCCC3)n1 | inconclusive: 50.1 µM [inhibitor, partial curve] | –
15 | CC(C)C(NC(=O)C12CC3CC(CC(C3)C1)C2)C(=O)N/N=C/C1=C(N2CCOCC2)C(=C\c2ccc([N+](=O)[O-])cc2)/CC1 (stereo not given) | inconclusive: 6.31 µM [inhibitor, single point] | –
16 | CC1(C)CC(=O)c2cc(-c3nc(-c4ccc(Cl)cc4)cs3)c(=O)n(-c3ccc(F)cc3)c2C1 | inconclusive: 31.6 µM [inhibitor, single point] | –
17 | Cc1cccc(CSc2ccc(S(=O)(=O)N3CCCC3)cn2)c1 | active: 14.1 µM | –
18 | CCOc1ccc2[nH]c(=O)c(CN(CCO)C(c3nnnn3C3CCCCC3)C(C)C)cc2c1 (stereo not given) | inconclusive: 20 µM [inhibitor, single point] | –
19 | COc1ccc(N2CCN(C(=O)c3cc(NS(=O)(=O)c4ccc(F)cc4)ccn3)CC2)cc1 | inconclusive: 12.6 µM [inhibitor, partial curve] | –
20 | CN1c2ccccc2N(C)C1c1ccc2c(c1)OCO2 | inactive | –
21 | CCCCNc1nnc(Cc2ccc(Cl)cc2)c(=O)[nH]1 | inconclusive: 89.1 µM [inhibitor, single point] | –
22 | COCc1c(C(=O)N/N=C/c2ccco2)nnn1-c1nonc1N | inactive | –
23 | COc1ccc(-c2csc(N(CCCN(C)C)C(=O)c3ccc(C(C)(C)C)cc3)n2)cc1 | inconclusive: 89.1 µM [inhibitor, single point] | –
24 | NC(=O)c1c(NC(=O)CSc2nnc(-c3ccccc3)n2CC2CCCO2)sc2c1CCC2 (stereo not given) | – | inconclusive: -66.7% [inhibitor]

Row | Compound | Potency | activity, negative = inhibition
25 | COc1ccc(C(=O)COC(=O)COc2cccc3c2OC(C)(C)C3)c(OC)c1 | inconclusive: 50.1 µM [inhibitor, partial curve, poor fit] | –
26 | CCOc1ccsc1C(=O)OC | inactive | –
27 | COc1cc(CN2CCN(c3ccccc3C)CC2)cc([N+](=O)[O-])c1O | active: 79.4 µM | –
28 | CCCCNc1nc2c(c(=O)n(Cc3ccc(Cl)c(Cl)c3)c(=O)n2C)n1C | inactive | –
29 | COCc1cc(C)nc(N2CCOCC2)c1C#N | inconclusive: 100 µM [inhibitor, partial curve, poor fit] | –
30 | CCC(=O)Nc1sc(Cc2ccc3c(c2)OCO3)c(C)c1C(N)=O | active: 10 µM | –
31 | COc1ccc(-c2noc(-c3ccc(N4CCC(C)CC4)c([N+](=O)[O-])c3)n2)cc1OC | inactive | –
32 | CCOc1ccc(NC(=O)Cn2cc(S(=O)(=O)N3CCN(c4ccccc4F)CC3)c3ccccc3c2=O)cc1 | inactive | –
33 | CCNc1ncc2nc(-c3ccc(F)cc3)c(=O)n(C)c2n1 | – | inactive: -10.6% [at 0.501 µM]
34 | CCOC(=O)c1ccc(NC(=S)NCCCn2ccnc2)cc1 | inconclusive: 50.1 µM [inhibitor, partial curve] | –
35 | O=C(Cc1ccccc1)Nc1ccc(NC(=O)c2ccco2)nc1 | inconclusive: 70.8 µM [inhibitor, single point] | –
36 | NS(=O)(=O)c1ccc(CNC(=O)/C=C/c2ccccc2[N+](=O)[O-])cc1 | inconclusive: 50.1 µM [inhibitor, partial curve, poor fit] | –
37 | COc1ccc(C(=O)COC(=O)CCN2C(=O)C3CC=CCC3C2=O)c(OC)c1 (stereo not given) | inactive | –
38 | NC(=S)N/N=C/c1ccccc1OCCSc1ccc(Cl)cc1 | inconclusive: 25.1 µM [inhibitor, single point] | –
39 | O=C(O)c1ccc2c(c1)C(=O)N(c1cccc(-c3nc4ccccc4s3)c1)C2=O | inconclusive: 44.7 µM [inhibitor, partial curve] | –
40 | CCCC1C2CN(C(C)=O)CC=C2C(C#N)=C(N)C1(C#N)C#N (stereo not given) | active: 14.1 µM | –
41 | CCc1ccc(NC(=O)CCNS(=O)(=O)c2ccc3c(c2)CCCC(=O)N3)cc1 | inactive | –
42 | O=C(Nc1ccc(S(=O)(=O)Nc2nccs2)cc1)c1cc(-c2ccccc2)nc2ccccc12 | active: 7.94 µM | –
43 | CN(C)c1nc2c(c(=O)[nH]c(=O)n2C)n1Cc1ccc(F)cc1 | inconclusive: 44.7 µM [inhibitor, partial curve, poor fit] | –
44 | O=C(CNc1ccc2ccccc2c1)N/N=C/c1ccc(OC(=O)/C=C/c2ccco2)cc1 | inconclusive: 89.1 µM [inhibitor, single point] | –
45 | N=C(N)SCc1nc2ccccc2c(=O)n1-c1ccccc1 | active: 44.7 µM | –
46 | CCOC(=O)c1cnc2ccc(OC)cc2c1Nc1ccc2c(c1)OCCO2 | inconclusive: 28.2 µM [inhibitor, single point] | –
47 | Cc1cc2nc(-c3cccc(NC(=O)CSc4ccc(Cl)cc4)c3)oc2cc1C | inactive | –
48 | COc1ccc2nc(NC(=O)c3ccccc3-c3ccccc3C(=O)O)sc2c1 | inconclusive: 56.2 µM [inhibitor, partial curve, poor fit] | –

Row | Compound | Potency | activity, negative = inhibition
49 | CCOC(=O)c1cc(-c2ccc(C)cc2)n(CC(=O)NC2CCCCCC2)c1C | inactive | –
50 | COc1ccc2[nH]c3c(=O)n(CCCCC(=O)N4CCC(C(N)=O)CC4)c(=S)[nH]c3c2c1 | inconclusive: 10 µM [inhibitor, partial curve, poor fit] | –
51 | O=C(Nc1cccnc1)c1sc(Nc2ccccc2F)nc1-c1ccccc1 | inactive | –
52 | CC(C)c1ccc(Nc2nc3c(S(=O)(=O)c4ccc(Br)cc4)nnn3c3ccsc23)cc1 | inactive | –
53 | Cc1ccc(OCC(=O)O/N=C(\N)c2cccc([N+](=O)[O-])c2)cc1C | inconclusive: 79.4 µM [inhibitor, single point] | –
54 | O=C(Nc1nc(=O)c2ccccc2s1)c1ccc(Cl)cc1 | active: 3.98 µM | –
55 | COc1ccc(-c2nn(-c3cccc([N+](=O)[O-])c3)c3c2cnc2cc4c(cc23)OCO4)cc1 | inconclusive: 39.8 µM [inhibitor, single point] | –
56 | O=C(O)CCC(=O)NCCn1c(-c2ccccc2)csc1=Nc1ccccc1 | inconclusive: 50.1 µM [inhibitor, partial curve, poor fit] | –
57 | Cc1ccc(-c2nc3ccccn3c2Nc2ccc3c(c2)OCO3)o1 | active: 7.94 µM | –
58 | O=S(=O)(Nc1ccc(-c2nc3cccnc3s2)cc1)c1cccs1 | inconclusive: 79.4 µM [inhibitor, partial curve, poor fit] | –
59 | C=CCC(CC=C)(CNC(=O)C(=O)Nc1ccc(C(=O)OCC)cc1)c1ccccc1 | inactive | –
60 | O=C1NC(=S)SC1=C1CCCC1 | active: 17.8 µM | –
61 | CN1C(=O)COc2ccc(C(=O)c3oc4ccccc4c3-c3cnc4c(c3)COc3ccccc3-4)cc21 | inconclusive: 39.8 µM [inhibitor, single point] | –
62 | O=C(NCc1ccc(Cl)cc1)c1cccc(S(=O)(=O)N2CCCC2)c1 | inactive | –
63 | COc1cc(NC(=S)NC(=O)c2ccc(C)cc2C)ccc1NC(=O)c1cccs1 | – | inconclusive: -52.3% [inhibitor] [at 12.7 µM]
64 | Cc1ccc(NC(=O)Cn2cc(S(=O)(=O)c3ccccc3)c(=O)c3cc4c(cc32)OCO4)cc1 | inconclusive: 39.8 µM [inhibitor, single point] | –
65 | Cc1nonc1CN(C)C(=O)CC1C(=O)NCCN1Cc1ccc(F)c(F)c1 (stereo not given) | inconclusive: 79.4 µM [inhibitor, single point] | –
66 | Cc1noc(/C=C/N(C)C)c1S(=O)(=O)N1CCCC(C(=O)NC2CCCCC2)C1 (stereo not given) | inconclusive: 79.4 µM [inhibitor, single point] | –
67 | Cc1csc(=O)n1CC(=O)OCC(=O)c1c(N)n(CC(C)C)c(=O)n(C)c1=O | inconclusive: 89.1 µM [inhibitor, partial curve, poor fit] | –
68 | Cc1ccc2c(c1)[nH]c1c(=O)n(Cc3ccco3)cnc12 | inactive | –
69 | COc1ccc(C2c3[nH]c4ccc(OC)cc4c3CCN2C(=O)Nc2ccccc2)cc1 (stereo not given) | inconclusive: 3.98 µM [inhibitor, full curve, poor fit] | –
70 | CN1CCC(OC(=O)c2cc3cc(Cl)cc(Cl)c3oc2=O)CC1 | inconclusive: 79.4 µM [inhibitor, single point] | –
